# In all, about 280,000 compounds went through this assay and about 100 (0.036%) were called active. Inconclusive results, whose numbers are uncertain, are shown with a selection of clear calls. Calls follow the shape of the dose curve; as a rule, active = well fitted inhibition curve with a large enough effect in the signal ratio, with a control signal flat (not every such curve was filed as active); inconclusive = small, poorly fitted or top-dose-only effect, or effect the other way, or a change in a side signal; inactive = no such curve, though single readings can be large or run the other way; the % refers to the signal ratio. A potency beside an inconclusive call is a rough fit, not a confirmed value. “Side channel” marks fits to a control or component signal instead of the main read-out.
# Target: Muscleblind-like protein 1 (Homo sapiens) (UniProt Q9NR56)
# Test: qHTS Assay for Inhibitors of MBNL1-poly(CUG) RNA binding
# Conditions: TR-FRET MBNL1-His/biotin-(CUG)12 binding, 665/545 ratio; activity change, negative = inhibition: at 57.5 µM (top of the series)
# How it was run: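 Compounds (final 92 nM to 58 uM) are added to His-tagged MBNL1 and biotin-(CUG)12, then terbium anti-His antibody and streptavidin-XL665 (5 nM final). After 60 min at room temperature, the 665/545 nm ratio is read.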
# % is scaled to controls: 0 for no effect and ±100 for the full control effect; potency is read from the fitted curve at half-maximal effect; tags tell the direction and shape of the fitted curve or compound fluorescence and quenching.
# Chain of UniProt Q9NR56 (Q9NR56 whole entry, looked up): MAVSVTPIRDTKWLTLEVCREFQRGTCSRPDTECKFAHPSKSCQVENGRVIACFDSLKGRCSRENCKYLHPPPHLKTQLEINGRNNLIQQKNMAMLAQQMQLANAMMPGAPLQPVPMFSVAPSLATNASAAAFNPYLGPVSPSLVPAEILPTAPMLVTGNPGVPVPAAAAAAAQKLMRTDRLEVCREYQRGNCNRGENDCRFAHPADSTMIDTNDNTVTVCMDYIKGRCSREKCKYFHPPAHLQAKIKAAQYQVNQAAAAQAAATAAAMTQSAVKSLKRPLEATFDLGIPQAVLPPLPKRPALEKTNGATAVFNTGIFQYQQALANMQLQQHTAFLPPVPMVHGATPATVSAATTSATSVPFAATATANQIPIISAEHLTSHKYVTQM
SMILES,"activity change, negative = inhibition",Potency
O=c1oc2cc(OCc3c(F)cccc3Cl)ccc2cc1-c1ccccn1,inactive: -8.03%,
O=C1c2ccccc2-c2nccnc21,,"inconclusive: 4.47 µM [quencher, side channel, partial curve]"
COc1ccc(S(=O)(=O)NN(C)C(=O)c2nn(-c3ccccc3)ccc2=O)cc1,,"inconclusive: 28.2 µM [quencher, side channel, single point]"
COc1ccc(-n2c3c(c(=O)[nH]c2=O)C(NC(C)=O)(C(F)(F)F)C(=O)N3)cc1 (configuration not stated),,"inconclusive: 39.8 µM [fluorescent, side channel, single point]"
Cc1ccc(C(=O)O)cc1N1C(=O)c2cccc3cc(Br)cc(c23)C1=O,,"inconclusive: 12.6 µM [quencher, side channel, partial curve]"
COc1ccc2oc(=N)c(-c3nnc4n3CCCCC4)cc2c1,,"inconclusive: 20 µM [quencher, side channel, partial curve]"
Cc1ccc(-c2nnc(Nc3ccc(CC(N)=O)cc3)c3ccccc23)cc1S(=O)(=O)NCCO,,"inconclusive: 25.1 µM [quencher, side channel, partial curve]"
S=C(NCc1cccnc1)Nc1cccc2ccccc12,,"inconclusive: 12.6 µM [quencher, side channel, partial curve]"
COc1ccc(-c2[nH]c(-c3ccc(C)cc3)nc2SCC(=O)NCc2ccco2)cc1OC,,"inconclusive: 126 µM [inhibitor, partial curve, poor fit]"
Cc1cc(C)n(-c2n[nH]c(=O)c3ccccc23)n1,inactive: 2.85%,
CS(=O)(=O)n1nc(-c2ccccc2)nc1NCc1ccco1,,"inconclusive: 14.1 µM [fluorescent, side channel, partial curve]"
Cc1ccsc1/C=N/NC(=O)c1c[nH]c2ccccc12,,"inconclusive: 10 µM [quencher, side channel, partial curve]"
Cc1cc(C(=O)Cn2ncc(Cl)c(Cl)c2=O)c(C)n1CC(F)(F)F,,"inconclusive: 20 µM [quencher, side channel, partial curve]"
O=C(CSc1ccc([N+](=O)[O-])cn1)Nc1ccc(N2CCOCC2)cc1,,"inconclusive: 1.78 µM [quencher, side channel, full curve]"
S=C(NCCc1ccccc1)Nc1c(Cl)cccc1Cl,inactive: 0.952%,
O=C(NCc1ccco1)/C(=C\c1ccco1)NC(=O)c1ccc(Br)o1,,"inconclusive: 22.4 µM [quencher, side channel, single point]"
CCN1CCc2nc(N)sc2C1,inactive: 7.59%,
O=C(c1ccccc1O)N1N=C(C(F)(F)F)CC1(O)c1ccc([N+](=O)[O-])cc1 (configuration not stated),,"inconclusive: 12.6 µM [quencher, side channel, partial curve]"
Cc1ccc(NC(=S)NCCN(C2CCCCC2)C2CCCC2)cc1C,inactive: -4.88%,
c1ccc2c(c1)nc(N1CCOCC1)c1nnnn12,inactive: -9.06%,
Cn1nc([N+](=O)[O-])nc1Oc1ccccc1,,"inconclusive: 14.1 µM [quencher, side channel, partial curve]"

SMILES,"activity change, negative = inhibition",Potency
CC(=O)Nc1ccc(Sc2ncccc2C(=O)Nc2ccc(OC(F)(F)F)cc2)cn1,inactive: -10.7%,
CCCCN(CC)C(=O)c1cc2cc3ccc(Cl)cc3nc2o1,,"inconclusive: 20 µM [quencher, side channel, partial curve]"
CCOc1cccc(CN2CCCC(N3CCc4cc(OC)c(OC)cc4C3)C2)c1O (configuration not stated),inactive: 1.34%,
CCCCNc1c(N)n(CCCC)c(=O)[nH]c1=O,,"inconclusive: 12.6 µM [quencher, side channel, partial curve]"
COc1ccc(/C=N\NC(=O)CNC(=O)C2COc3ccccc3O2)cc1[N+](=O)[O-] (configuration not stated),,"inconclusive: 12.6 µM [quencher, side channel, partial curve]"
CN(C)Cc1ccccc1Sc1cccc2ccccc12,,"inconclusive: 8.91 µM [quencher, side channel, partial curve]"
Cc1ccc(NC(=O)COC(=O)c2cc(Cl)ccc2[N+](=O)[O-])c(C)c1,,"inconclusive: 12.6 µM [quencher, side channel, partial curve]"
CSc1nnc(N2C(=O)C(O)=C(C(=O)c3ccco3)C2c2ccccc2F)s1 (configuration not stated),,"inconclusive: 25.1 µM [quencher, side channel, partial curve]"
COc1ccc(C(C)C)cc1S(=O)(=O)NCc1ccccn1,inactive: 2.41%,
O=[N+]([O-])c1cccc(Nc2c3ccccc3nc3ccccc23)c1,,"inconclusive: 15.8 µM [quencher, side channel, partial curve]"
O=C(NCCc1ccccn1)c1cc(-c2ccccc2Cl)nc2ccccc12,,"inconclusive: 44.7 µM [fluorescent, side channel, partial curve, poor fit]"
COC(=O)c1ccc2nc(NC(=O)CN3C(=O)CCC3=O)sc2c1,inactive: -4.66%,
O=C(Nc1ccccn1)c1cc2ccccc2o1,,"inconclusive: 10 µM [quencher, side channel, partial curve, poor fit]"
O=C(O)c1[nH]c2ccccc2c1C(c1cc(Br)ccc1O)c1c(C(=O)O)[nH]c2ccccc12,,"inconclusive: 39.8 µM [inhibitor, single point]"
Cc1ccc(Cl)cc1NC(=O)C[n+]1ccc(Cc2ccc([N+](=O)[O-])cc2)cc1,,"inconclusive: 6.31 µM [quencher, partial curve]"
CN1C/C(=C\c2ccc(N3CCOCC3)cc2)C(=O)/C(=C/c2ccc(N3CCOCC3)cc2)C1,inactive: -2.21%,
Cc1cccc(-c2ccc(C=Nc3c(C)n(C)n(-c4ccccc4)c3=O)o2)c1,,"inconclusive: 11.2 µM [quencher, side channel, partial curve]"
Cc1nnc(C)n1/N=C/c1cccc([N+](=O)[O-])c1,,"inconclusive: 28.2 µM [quencher, side channel, partial curve]"
CC(C)CSc1ccc(S(=O)(=O)NCC(=O)O)cc1[N+](=O)[O-],,"inconclusive: 17.8 µM [quencher, side channel, partial curve]"
O=C(Nc1ccc(Cl)c([N+](=O)[O-])c1)c1ccco1,,"inconclusive: 20 µM [quencher, side channel, partial curve]"
Cc1ccc(Cl)cc1NC(=S)Nn1cnnc1,,"inconclusive: 31.6 µM [quencher, single point]"

SMILES,"activity change, negative = inhibition",Potency
COC(=O)CCCC(=O)Nc1ccc(Cl)c(Cl)c1,inactive: -5.05%,
CCOc1ccc2nc(SC3CC(=O)N(c4ccc(OC)cc4OC)C3=O)sc2c1 (configuration not stated),inactive: -6.24%,
COc1cc(/C=C\C(=O)OCn2nnc3ccccc3c2=O)cc(OC)c1OC,,"inconclusive: 39.8 µM [quencher, side channel, partial curve]"
O=[N+]([O-])c1ccc2nnn(O)c2c1,,"inconclusive: 2.82 µM [quencher, side channel, partial curve]"
CCn1c(CS(=O)Cc2ccc(Cl)cc2Cl)nnc1SCc1c(Cl)cccc1Cl (configuration not stated),,"inconclusive: 8.91 µM [quencher, side channel, single point]"
O=C(O)c1ccc2oc(SCC(=O)N3CCCCC3)nc2c1,,"inconclusive: 8.91 µM [quencher, side channel, single point]"
Clc1ccc(C2=NNC(=NCc3ccc4c(c3)OCO4)SC2)cc1,inactive: -1.14%,
COCCN1C=C2C(=O)C(C)(OC(=O)c3cccs3)C(=O)C=C2C=C1CCCC(=O)OC (configuration not stated),,"inconclusive: 31.6 µM [quencher, side channel, single point]"
Cc1ccc(-c2cc(-c3ccco3)c3c(N)c(C(=O)NN)oc3n2)cc1,,"inconclusive: 6.31 µM [quencher, partial curve]"
Cc1ccc(-n2nc(C)c3c(C)cc(=O)[nH]c32)cc1,inactive: 2.52%,
C=CCNCCCCOc1ccccc1,,"inconclusive: 5.01 µM [fluorescent, side channel, partial curve]"
Cn1c(C(=O)N2CCc3ccccc3C2)cc2c(=O)n3ccccc3nc21,,"inconclusive: 17.8 µM [quencher, side channel, partial curve]"
C=CCOc1ccc(/C(O)=C2/C(=O)C(=O)N(CCCN3CCOCC3)C2c2ccc(OC)cc2)cc1 (configuration not stated),,"inconclusive: 28.2 µM [quencher, side channel, partial curve]"
O=C(CCN1C(=O)c2cccc3cccc(c23)C1=O)Nc1ccon1,,"inconclusive: 2.82 µM [quencher, side channel, full curve]"
COc1ccc(OCCCC(=O)Nc2nc(-c3ccccn3)cs2)cc1,inactive: 33.6%,
CCOc1ccc(N2C(=O)CC(NCCNc3ccc([N+](=O)[O-])cn3)C2=O)cc1 (configuration not stated),,"inconclusive: 17.8 µM [quencher, side channel, partial curve]"
O=C(O)c1ccc(/C=N/n2cc(-c3ccccc3)[nH]c2=S)cc1,,"inconclusive: 12.6 µM [quencher, side channel, partial curve]"
Cc1oc(/C=N/NC(=O)CC2(C)OCCO2)cc1Br,,"inconclusive: 11.2 µM [quencher, side channel, partial curve]"
O=C(CN1C(=O)CCC1=O)Nc1cccc2c1C(=O)NC2=O,,"inconclusive: 28.2 µM [quencher, side channel, single point]"
CC(C)CNC(=O)COc1cccc(C(=O)NCc2ccccc2)c1,,"inconclusive: 0.355 µM [quencher, side channel, single point]"
